Among all 45,000 compounds or so, about 65 (0.1%) were called active. Calls follow the shape of the dose curve; as a rule, active = well fitted activation curve with a large enough effect; inconclusive = small, poorly fitted or top-dose-only effect; inactive = no such curve, though single readings can be large or run the other way. This is one part of the list.
molecular target: Galactocerebrosidase (Homo sapiens) (UniProt P54803); experiment: A Novel Cell-Based Assay to Identify Small Molecules for B -Galactocerebrosidase; conditions: 145M-Twi-hGALC-G270D cells (Twitcher mouse brain line with human GALC G270D), HMU-beta-Gal fluorescence, 48 h; series mostly up to 57.5 µM; activation: at the top concentration; also: 0% is about no effect; nearly all actives have a fitted effect of over 65% in size
Sequence of UniProt P54803 (P54803 whole entry, looked up): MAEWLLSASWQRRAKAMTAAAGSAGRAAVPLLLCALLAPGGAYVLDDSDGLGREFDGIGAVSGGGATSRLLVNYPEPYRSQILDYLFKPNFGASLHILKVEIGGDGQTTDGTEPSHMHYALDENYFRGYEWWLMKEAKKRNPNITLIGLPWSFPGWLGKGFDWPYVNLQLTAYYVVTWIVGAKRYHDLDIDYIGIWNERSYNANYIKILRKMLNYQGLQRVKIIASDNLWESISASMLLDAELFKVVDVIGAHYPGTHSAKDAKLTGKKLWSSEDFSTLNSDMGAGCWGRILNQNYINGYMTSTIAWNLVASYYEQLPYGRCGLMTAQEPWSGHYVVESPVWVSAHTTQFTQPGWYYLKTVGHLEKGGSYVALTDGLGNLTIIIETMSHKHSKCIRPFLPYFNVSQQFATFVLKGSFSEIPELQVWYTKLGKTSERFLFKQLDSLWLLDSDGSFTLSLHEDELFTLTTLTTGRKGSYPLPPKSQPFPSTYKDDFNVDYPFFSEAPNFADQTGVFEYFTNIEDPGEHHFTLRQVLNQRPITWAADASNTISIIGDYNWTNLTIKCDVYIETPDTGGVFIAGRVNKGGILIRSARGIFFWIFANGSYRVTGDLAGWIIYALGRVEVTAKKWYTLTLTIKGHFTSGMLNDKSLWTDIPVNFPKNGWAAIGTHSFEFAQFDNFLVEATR
Method in brief: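 Live 145M-Twi cells (Twitcher mouse brain-derived, GALC-null) stably expressing human GALC-G270D, with a wild-type GALC line, were compound-treated. Residual GALC activity was then read as fluorescence from 0.1 mM final HMU-β-gal at pH 5.2; higher signal means activation.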

activation, inactive:
CCOC(=O)N1CCC2(CC1)OC(=O)C(C)=C2C(=O)NCc1ccc(C)cc1 -10.6%, CCNC(=O)c1ccc(CSc2nc3cccnc3n2Cc2ccc(OC)cc2)cc1 -48.5%, CCCc1cnc2c(c1SCC(=O)Nc1c(C)cc(C)cc1C)c(=O)n(C)c(=O)n2C -13%, COC(=O)c1ccc(NC(=O)Cn2c(-c3nonc3N)nc3ccccc32)cc1 -8.97%, Cc1cccc(-c2nc(CN3CCCC(C(=O)NCc4ccc(Cl)cc4)C3)c(C)o2)c1 (configuration not stated) -9.76%, Cc1nn(CC(=O)N2CCC(C)CC2)c(=O)c2cc3occc3n12 -18.1%, O=C(NCCc1csc(-c2cccc(F)c2)n1)c1ccccc1C(F)(F)F -11.7%, CCN(C(=O)CN1C(=O)COc2ccc(S(=O)(=O)N3CCOCC3)cc21)c1cccc(C)c1 -2.05%, COc1ccc(CNC(=O)CCCn2c(=O)c3cccn3c3ccc(F)cc32)cc1OC -7.04%, Cc1ccc(-n2ncc(C(=O)NCc3ccccn3)c2C2CCN(C(=O)OC(C)(C)C)CC2)c(C)c1 -14.3%, COc1ccc(NC(=O)CN2C(=O)CSc3ccc(S(=O)(=O)N(C)C)cc32)cc1Cl -8.79%, O=C(Nc1ccc(Cl)c(C(F)(F)F)c1)c1ccc2c(c1)CCN2S(=O)(=O)c1ccccc1 -15.9%, Cc1ccc2occ(CC(=O)Nc3ccc(S(=O)(=O)N4CCCC(C)C4)cc3)c2c1 (configuration not stated) -16.3%, COc1ccc(NC(=O)C2CCN(C(=O)N3CCOc4ccccc43)CC2)cc1 -13.3%, Cc1ccccc1Cn1nnc2c(=O)[nH]c(C3CCN(C(=O)c4ccccc4Cl)CC3)nc21 -14.9%, CCC1CN(C(=O)NCc2ccccc2)c2cc(C)ccc2O1 (configuration not stated) -14.1%, COc1ccc(NC(=O)N2CCN(S(=O)(=O)c3ccc4c(ccn4C)c3)CC2)cc1OC -13%, COCCCNC(=O)C(C)n1c2ccccc2c2cnn(C)c(=O)c21 (configuration not stated) 0.371%, COc1ccc(-c2noc(N3CCC(C(=O)Nc4ccc(OC)c(OC)c4)CC3)n2)cc1 5.99%, O=c1c2cc3c(cc2n(Cc2ccccc2)c(=O)n1Cc1nc(-c2ccccc2)no1)OCO3 -3.28%, COc1ccc(Cl)cc1Nc1cc(C)nc2nc(-c3ccccc3C)nn12 -12.2%, CN(C)c1ccc(C(CNC(=O)c2cccc(C(F)(F)F)c2)N2CCCC2)cc1 (configuration not stated) -15.6%, COc1ccc(Br)cc1CNC(=O)c1cc(=O)[nH]c2ccc(S(=O)(=O)N3CCCCC3)cc12 -9.01%, Cc1cccc(C)c1NC(=O)CN(Cc1ccc(Br)cc1)S(=O)(=O)c1ccccc1 -13.7%, CCCSc1nc(-c2ccc(OC)cc2)cc(-c2ccccc2OC)c1C#N -8.72%, CN(C)[C@@H](CCOc1cccc2ccccc12)c1ccccc1 -6.67%, CCOC(=O)c1ccc(NS(=O)(=O)c2ccc3c(c2)OCCO3)cc1 -4.48%, CCCC(=O)Nc1cccc(-c2cn3cccnc3n2)c1 -20.5%, Cc1ccc(CNc2ncnc3c2c(-c2ccccc2)cn3-c2ccccc2)cc1 -16.7%, CCOc1ccc(NC(=O)C2CCN(S(=O)(=O)c3c(C)noc3/C=C/c3c(C)cc(C)cc3C)CC2)cc1 -5.31%, CCCCCCCC/C=C\CCCCCCCCN -12.8%, COc1ccc(OC)c(-c2noc(N3CCN(c4cc(C)ccc4C)CC3)n2)c1 -11.2%, CC(C)[N+](C)(C)CC(O)COc1cccc2ccccc12 (configuration not stated) -1.22%, CCN(CC)c1ccc(NC(=O)c2sc3ccccc3c2Cl)cc1 3.9%, CCCC(CCC)C(=O)O -31.4%, COc1ccc(OC)c(CCNC(=O)Cn2ccc3cc(S(=O)(=O)N4CCCCC4)ccc32)c1 -6.32%, CCOC(=O)Cc1ccc(NC(=O)Nc2cc3c(cc2N2CCCCC2)n(C)c(=O)n3C)cc1 -13.9%, CCCn1c(=N)c(C(=O)NCc2cccnc2)cc2c(=O)n3ccccc3nc21 -8.89%, Cc1ccc(N(C)S(=O)(=O)c2nnc(NC(=O)CC(C)C)s2)cc1 -1.85%, COc1ccccc1-c1cc2nc(C)c(CCC(=O)NCCc3ccc(SC)cc3)c(C)n2n1 -19%, Cc1ccc(C)c(CNC(=O)c2ccc3c(c2)nc2n3CCC(C)C2)c1 (configuration not stated) -11%, CCOC(=O)c1cc(OC(=O)c2ccc(OC)cc2)n(-c2ccccc2)n1 -2.85%, COc1ccc(NC(=O)C(Cc2ccccc2)NS(=O)(=O)c2ccc3c(c2)CCN3C(C)=O)cc1 (configuration not stated) -8.43%, CCOc1ccc(CNC(=O)Cn2ccc3cc(S(=O)(=O)N4CCCCCC4)ccc32)cc1 7.3%, CCCCOC(=O)c1ccc(NC(=O)CC2NCCNC2=O)cc1 (configuration not stated) -13.6%, COCCCNC(=O)C1CCC(CNS(=O)(=O)c2ccc(OC)cc2)CC1 (configuration not stated) -15.8%, CCOC(=O)c1cc2c(=O)n3ccccc3nc2n(C)c1=NC(=O)c1c(-c2ccccc2Cl)noc1C -5.52%, Cc1ccc(NC(=O)Cn2c(=O)ccc3cc(S(=O)(=O)N4CCC(C)CC4)ccc32)c(C)c1 -13.5%, O=C(Nc1ccc(F)cc1F)c1ccc2c(c1)CCN2S(=O)(=O)c1ccc(Cl)cc1 -7.23%, COc1ccc(-n2cc(C(=O)Nc3cc(F)ccc3F)c3ccccc3c2=O)cc1 -7.77%, COc1cc(-c2cc3n(C)c(C)c(CCC(=O)NCc4ccccc4)c(=O)n3n2)cc(OC)c1OC -10.2%, COc1cccc(CNC(=O)C2CCN(Cc3cc4ccccc4n3Cc3ccc(C)cc3)CC2)c1 -17.8%, COc1ccc2oc(=O)c(C(=O)Nc3cccc(C(=O)O)c3)cc2c1 -8.99%, COCCNC(=O)Cn1nc(-c2ccc(C)cc2)c2ccccc2c1=O -5.66%, Cc1nc2cc(-c3cccc(F)c3)nn2c(C)c1CCC(=O)Nc1ccccc1C(N)=O 14.8%, Cc1cccc(NC(=O)c2ccc(CN3CC(=O)N4CCCCC4C3=O)cc2)c1C (configuration not stated) -7.98%, COc1cc(N)c(Cl)cc1C(=O)NC1CCN(CCCOc2ccc(F)cc2)CC1OC (configuration not stated) -13.4%, CCCCn1c(CCCNC(=O)c2cccc(C)c2)nc2ccccc21 -10.9%, Cc1ccc2oc(-c3cccc(NC(=O)c4cccc5c(Cl)cccc45)c3)nc2c1 -3.16%, COc1cccc(Cn2nnc3c(=O)[nH]c(C4CCCN(C(=O)c5ccccc5Cl)C4)nc32)c1 (configuration not stated) -10.2%, COc1ccc(CNc2nc(-c3ccc(Cl)cc3)cc(C(F)(F)F)n2)cc1 8.73%, COC(=O)c1c(-c2ccc(Cl)cc2)noc1N1CCN(c2ccccc2OC)CC1 -12.1%

— PubChem BioAssay AID1159614 (National Center for Advancing Translational Sciences (NCATS), 2016)
